63 sequences from paper PMC12820563 can be followed below.

The list shows a part of the results. The list includes weakly bound sequences.

The experiment addresses T1, MBP-FoxP3dN (UniProt Q99JB6).
T1 sequence: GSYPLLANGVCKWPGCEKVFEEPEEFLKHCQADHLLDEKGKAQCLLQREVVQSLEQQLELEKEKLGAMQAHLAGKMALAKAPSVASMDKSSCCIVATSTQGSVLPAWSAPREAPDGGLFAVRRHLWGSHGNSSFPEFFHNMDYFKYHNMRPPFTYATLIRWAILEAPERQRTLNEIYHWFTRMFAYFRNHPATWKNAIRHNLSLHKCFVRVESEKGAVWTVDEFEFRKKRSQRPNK
The experiment in a line: PD-seq (MBP pull-down with sequencing). The note with it: 20 mM Tris-HCl pH 7.5, 100 mM NaCl, 1.5 mM MgCl2, 0.4 uM protein, 0.1 uM dsDNA library, 30 min, room temperature, amylose pull-down; high values mean tight binding; double strand, one strand shown.
With “GATGATTGTTCTCCCAGCTGATGAATTGACTGTCTCGAGTAAACAAATTTTCCTAATCTTTCTGTTCAAGCGCCATCTAC”, the binding signal (RPM ratio (pull-down/input)) was 0.449.
For “GATGATTGTTCTCCCAGCTGATGAATTCGGCTCGTCGAGTAAACAAATTTTCCTAATCTTTCTGTTCAAGCGCCATCTAC”, the binding signal (RPM ratio (pull-down/input)) was 0.512.
The figure for “GATGATTGTTCTCCCAGCTGATGAATTCATTTGGTCGAGTAAACAAATTTTCCTAATCTTTCTGTTCAAGCGCCATCTAC” is 2.19.
Next, “GATGATTGTTCTCCCAGCTGATGAATTAACACCCTCGAGTAAACAAATTTTCCTAATCTTTCTGTTCAAGCGCCATCTAC”: 0.385; “GATGATTGTTCTCCCAGCTGATGAATTACAGTGTTCGAGTAAACAAATTTTCCTAATCTTTCTGTTCAAGCGCCATCTAC”: 0.809; “GATGATTGTTCTCCCAGCTGATGAATTTGAATGATCGAGTAAACAAATTTTCCTAATCTTTCTGTTCAAGCGCCATCTAC”: 0.488.
For the sequence “GATGATTGTTCTCCCAGCTGATGAATTGCGTTCCTCGAGTAAACAAATTTTCCTAATCTTTCTGTTCAAGCGCCATCTAC”, the binding signal (RPM ratio (pull-down/input)) was 1.24.
“GATGATTGTTCTCCCAGCTGATGAATTAGCCGGTTCGAGTAAACAAATTTTCCTAATCTTTCTGTTCAAGCGCCATCTAC”: the binding signal (RPM ratio (pull-down/input)) stood at 0.257.
Next, “GATGATTGTTCTCCCAGCTGATGAATTAATGCTCTCGAGTAAACAAATTTTCCTAATCTTTCTGTTCAAGCGCCATCTAC”: 1.37; “GATGATTGTTCTCCCAGCTGATGAATTCATTCCATCGAGTAAACAAATTTTCCTAATCTTTCTGTTCAAGCGCCATCTAC”: 0.306; “GATGATTGTTCTCCCAGCTGATGAATTGGGCGTATCGAGTAAACAAATTTTCCTAATCTTTCTGTTCAAGCGCCATCTAC”: 1.07.
Turning to “GATGATTGTTCTCCCAGCTGATGAATTTCGTGCATCGAGTAAACAAATTTTCCTAATCTTTCTGTTCAAGCGCCATCTAC”, the binding signal (RPM ratio (pull-down/input)) was 1.22.
The figure for “GATGATTGTTCTCCCAGCTGATGAATTAGTACCTTCGAGTAAACAAATTTTCCTAATCTTTCTGTTCAAGCGCCATCTAC” is 0.7.
The figure for “GATGATTGTTCTCCCAGCTGATGAATTACTCTGCTCGAGTAAACAAATTTTCCTAATCTTTCTGTTCAAGCGCCATCTAC” is 0.3; for “GATGATTGTTCTCCCAGCTGATGAATTGGCCCCCTCGAGTAAACAAATTTTCCTAATCTTTCTGTTCAAGCGCCATCTAC” it is 0.311.
The figure for “GATGATTGTTCTCCCAGCTGATGAATTCGAGGCTTCGAGTAAACAAATTTTCCTAATCTTTCTGTTCAAGCGCCATCTAC” is 0.466; for “GATGATTGTTCTCCCAGCTGATGAATTACAACAATCGAGTAAACAAATTTTCCTAATCTTTCTGTTCAAGCGCCATCTAC” it is 2.82; for “GATGATTGTTCTCCCAGCTGATGAATTGATGGGTTCGAGTAAACAAATTTTCCTAATCTTTCTGTTCAAGCGCCATCTAC” it is 0.58.
For the sequence “GATGATTGTTCTCCCAGCTGATGAATTAGATTCATCGAGTAAACAAATTTTCCTAATCTTTCTGTTCAAGCGCCATCTAC”, the binding signal (RPM ratio (pull-down/input)) turned out to be 0.555.
Next, “GATGATTGTTCTCCCAGCTGATGAATTACATGTCTCGAGTAAACAAATTTTCCTAATCTTTCTGTTCAAGCGCCATCTAC”: 0.829.
The figure for “GATGATTGTTCTCCCAGCTGATGAATTCGGGAAATCGAGTAAACAAATTTTCCTAATCTTTCTGTTCAAGCGCCATCTAC” is 0.297.
The figure for “GATGATTGTTCTCCCAGCTGATGAATTTGAGTAATCGAGTAAACAAATTTTCCTAATCTTTCTGTTCAAGCGCCATCTAC” is 0.649.
With “GATGATTGTTCTCCCAGCTGATGAATTGGACGGATCGAGTAAACAAATTTTCCTAATCTTTCTGTTCAAGCGCCATCTAC”, the binding signal (RPM ratio (pull-down/input)) turned out to be 0.179.
On to “GATGATTGTTCTCCCAGCTGATGAATTTTAGGGTTCGAGTAAACAAATTTTCCTAATCTTTCTGTTCAAGCGCCATCTAC”, for which the binding signal (RPM ratio (pull-down/input)) is 0.369.
As to “GATGATTGTTCTCCCAGCTGATGAATTCTAGACTTCGAGTAAACAAATTTTCCTAATCTTTCTGTTCAAGCGCCATCTAC”, the binding signal (RPM ratio (pull-down/input)) was 0.361.
The figure for “GATGATTGTTCTCCCAGCTGATGAATTGTTGGGGTCGAGTAAACAAATTTTCCTAATCTTTCTGTTCAAGCGCCATCTAC” is 1.79; for “GATGATTGTTCTCCCAGCTGATGAATTGTTTTATTCGAGTAAACAAATTTTCCTAATCTTTCTGTTCAAGCGCCATCTAC” it is 1.66.
The figure for “GATGATTGTTCTCCCAGCTGATGAATTACGTAATTCGAGTAAACAAATTTTCCTAATCTTTCTGTTCAAGCGCCATCTAC” is 0.952.
The figure for “GATGATTGTTCTCCCAGCTGATGAATTTCCCGAGTCGAGTAAACAAATTTTCCTAATCTTTCTGTTCAAGCGCCATCTAC” is 0.171; for “GATGATTGTTCTCCCAGCTGATGAATTATGATCATCGAGTAAACAAATTTTCCTAATCTTTCTGTTCAAGCGCCATCTAC” it is 0.762.
With “GATGATTGTTCTCCCAGCTGATGAATTATCCAGTTCGAGTAAACAAATTTTCCTAATCTTTCTGTTCAAGCGCCATCTAC”, the binding signal (RPM ratio (pull-down/input)) was found to be 0.235.
Next, “GATGATTGTTCTCCCAGCTGATGAATTCTTCTGGTCGAGTAAACAAATTTTCCTAATCTTTCTGTTCAAGCGCCATCTAC”: 0.192.
Next, “GATGATTGTTCTCCCAGCTGATGAATTAGCAGAATCGAGTAAACAAATTTTCCTAATCTTTCTGTTCAAGCGCCATCTAC”: 0.204.
The figure for “GATGATTGTTCTCCCAGCTGATGAATTGTATGGCTCGAGTAAACAAATTTTCCTAATCTTTCTGTTCAAGCGCCATCTAC” is 1.21; for “GATGATTGTTCTCCCAGCTGATGAATTCATACAATCGAGTAAACAAATTTTCCTAATCTTTCTGTTCAAGCGCCATCTAC” it is 0.579.
“GATGATTGTTCTCCCAGCTGATGAATTCCGGGAATCGAGTAAACAAATTTTCCTAATCTTTCTGTTCAAGCGCCATCTAC”: the binding signal (RPM ratio (pull-down/input)) is 0.196.
The figure for “GATGATTGTTCTCCCAGCTGATGAATTGCCCTGCTCGAGTAAACAAATTTTCCTAATCTTTCTGTTCAAGCGCCATCTAC” is 0.383.
The figure for “GATGATTGTTCTCCCAGCTGATGAATTCGTCGCGTCGAGTAAACAAATTTTCCTAATCTTTCTGTTCAAGCGCCATCTAC” is 0.76; for “GATGATTGTTCTCCCAGCTGATGAATTATCACCTTCGAGTAAACAAATTTTCCTAATCTTTCTGTTCAAGCGCCATCTAC” it is 0.388; for “GATGATTGTTCTCCCAGCTGATGAATTCTTTACATCGAGTAAACAAATTTTCCTAATCTTTCTGTTCAAGCGCCATCTAC” it is 0.43.
The figure for “GATGATTGTTCTCCCAGCTGATGAATTACCCTATTCGAGTAAACAAATTTTCCTAATCTTTCTGTTCAAGCGCCATCTAC” is 0.353; for “GATGATTGTTCTCCCAGCTGATGAATTCCCCTGCTCGAGTAAACAAATTTTCCTAATCTTTCTGTTCAAGCGCCATCTAC” it is 0.212; for “GATGATTGTTCTCCCAGCTGATGAATTGATTTCGTCGAGTAAACAAATTTTCCTAATCTTTCTGTTCAAGCGCCATCTAC” it is 0.847.
“GATGATTGTTCTCCCAGCTGATGAATTAGATTCGTCGAGTAAACAAATTTTCCTAATCTTTCTGTTCAAGCGCCATCTAC”: the binding signal (RPM ratio (pull-down/input)) was determined as 0.671.
With “GATGATTGTTCTCCCAGCTGATGAATTAATATAATCGAGTAAACAAATTTTCCTAATCTTTCTGTTCAAGCGCCATCTAC”, the binding signal (RPM ratio (pull-down/input)) was 0.438.
Next, “GATGATTGTTCTCCCAGCTGATGAATTGACACTCTCGAGTAAACAAATTTTCCTAATCTTTCTGTTCAAGCGCCATCTAC”: 0.6; “GATGATTGTTCTCCCAGCTGATGAATTTGCGGGCTCGAGTAAACAAATTTTCCTAATCTTTCTGTTCAAGCGCCATCTAC”: 0.703.
On to “GATGATTGTTCTCCCAGCTGATGAATTGGCATGTTCGAGTAAACAAATTTTCCTAATCTTTCTGTTCAAGCGCCATCTAC”, for which the binding signal (RPM ratio (pull-down/input)) is 1.37.
With “GATGATTGTTCTCCCAGCTGATGAATTATTGTCGTCGAGTAAACAAATTTTCCTAATCTTTCTGTTCAAGCGCCATCTAC”, the binding signal (RPM ratio (pull-down/input)) is 1.32.
The figure for “GATGATTGTTCTCCCAGCTGATGAATTTGTTCAATCGAGTAAACAAATTTTCCTAATCTTTCTGTTCAAGCGCCATCTAC” is 0.584.
On to “GATGATTGTTCTCCCAGCTGATGAATTACCCCTATCGAGTAAACAAATTTTCCTAATCTTTCTGTTCAAGCGCCATCTAC”, for which the binding signal (RPM ratio (pull-down/input)) was 0.321.
Next, “GATGATTGTTCTCCCAGCTGATGAATTGTAACCTTCGAGTAAACAAATTTTCCTAATCTTTCTGTTCAAGCGCCATCTAC”: 0.604.
Consider “GATGATTGTTCTCCCAGCTGATGAATTTTACGTATCGAGTAAACAAATTTTCCTAATCTTTCTGTTCAAGCGCCATCTAC”, for which the binding signal (RPM ratio (pull-down/input)) was 0.57.
Turning to “GATGATTGTTCTCCCAGCTGATGAATTTTTCATATCGAGTAAACAAATTTTCCTAATCTTTCTGTTCAAGCGCCATCTAC”, the binding signal (RPM ratio (pull-down/input)) was found to be 0.307.
Consider “GATGATTGTTCTCCCAGCTGATGAATTTGTTTATTCGAGTAAACAAATTTTCCTAATCTTTCTGTTCAAGCGCCATCTAC”, for which the binding signal (RPM ratio (pull-down/input)) was found to be 7.73.
In the case of “GATGATTGTTCTCCCAGCTGATGAATTTACGGCCTCGAGTAAACAAATTTTCCTAATCTTTCTGTTCAAGCGCCATCTAC”, the binding signal (RPM ratio (pull-down/input)) was 0.586.
For “GATGATTGTTCTCCCAGCTGATGAATTACTTCACTCGAGTAAACAAATTTTCCTAATCTTTCTGTTCAAGCGCCATCTAC”, the binding signal (RPM ratio (pull-down/input)) was 0.319.
Turning to “GATGATTGTTCTCCCAGCTGATGAATTTAAGTCCTCGAGTAAACAAATTTTCCTAATCTTTCTGTTCAAGCGCCATCTAC”, the binding signal (RPM ratio (pull-down/input)) came out at 0.424.
Take “GATGATTGTTCTCCCAGCTGATGAATTTATCCCCTCGAGTAAACAAATTTTCCTAATCTTTCTGTTCAAGCGCCATCTAC”: the binding signal (RPM ratio (pull-down/input)) was determined as 0.817.
As for “GATGATTGTTCTCCCAGCTGATGAATTTTAACGATCGAGTAAACAAATTTTCCTAATCTTTCTGTTCAAGCGCCATCTAC”, the binding signal (RPM ratio (pull-down/input)) came to 0.302.
Next, “GATGATTGTTCTCCCAGCTGATGAATTTGCGGGGTCGAGTAAACAAATTTTCCTAATCTTTCTGTTCAAGCGCCATCTAC”: 1.36; “GATGATTGTTCTCCCAGCTGATGAATTCGAATGCTCGAGTAAACAAATTTTCCTAATCTTTCTGTTCAAGCGCCATCTAC”: 0.945; “GATGATTGTTCTCCCAGCTGATGAATTCTCGTACTCGAGTAAACAAATTTTCCTAATCTTTCTGTTCAAGCGCCATCTAC”: 0.341.
